Data taken from PubChem BioAssay AID493035 (The Scripps Research Institute Molecular Screening Center, 2011).
The whole screen tested about 2,000 compounds, of which about 45 (2%) were called active.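 How the source made its calls: active means inhibition above the mean of all tested compounds plus 3 SD (cut at about 49% in these data); inactive means the rest.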 The list shows a part of the results.

Biological target: Perilipin-5 (Homo sapiens) + 1-acylglycerol-3-phosphate O-acyltransferase ABHD5 (Homo sapiens) (UniProt Q00G26+Q8WTS1)
Assay: ABHD5-PLIN5 interaction inhibitors, pilot screen, cell lysate, split luciferase complementation, luminescence, NIH validation set (AID 493035);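 further: 0% = DMSO only wells while the 100% control is not stated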
Conditions: split G. princeps luciferase complementation, lysates, 4 h; at 7.9 µM, active compounds read high

Chain of UniProt Q00G26 (Q00G26 whole entry, looked up): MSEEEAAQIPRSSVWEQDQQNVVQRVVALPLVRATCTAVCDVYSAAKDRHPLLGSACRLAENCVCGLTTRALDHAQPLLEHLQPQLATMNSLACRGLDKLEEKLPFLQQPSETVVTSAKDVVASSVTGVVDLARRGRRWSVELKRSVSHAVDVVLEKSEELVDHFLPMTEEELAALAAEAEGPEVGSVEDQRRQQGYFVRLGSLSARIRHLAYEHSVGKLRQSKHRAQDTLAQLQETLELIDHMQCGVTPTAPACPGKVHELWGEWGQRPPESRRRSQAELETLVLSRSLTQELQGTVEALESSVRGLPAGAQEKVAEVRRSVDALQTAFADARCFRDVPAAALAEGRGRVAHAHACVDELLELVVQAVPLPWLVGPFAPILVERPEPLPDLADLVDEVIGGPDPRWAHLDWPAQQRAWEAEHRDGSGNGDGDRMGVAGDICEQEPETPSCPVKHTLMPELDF
Chain of UniProt Q00G26 (Q8WTS1 whole entry, looked up): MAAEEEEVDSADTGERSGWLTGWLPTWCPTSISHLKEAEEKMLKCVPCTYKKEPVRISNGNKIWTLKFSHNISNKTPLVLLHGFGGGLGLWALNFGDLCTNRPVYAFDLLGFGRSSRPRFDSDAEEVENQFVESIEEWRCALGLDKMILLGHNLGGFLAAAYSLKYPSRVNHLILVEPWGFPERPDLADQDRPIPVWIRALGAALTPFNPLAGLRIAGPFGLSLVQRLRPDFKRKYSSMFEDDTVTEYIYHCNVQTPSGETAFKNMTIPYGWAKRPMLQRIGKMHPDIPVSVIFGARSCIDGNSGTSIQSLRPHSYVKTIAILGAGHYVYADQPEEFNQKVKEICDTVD

inhibition, inactive:
CC(=O)NC(NC(=S)N1CCCCCC1)C(Cl)(Cl)Cl (stereo not given) -13%
COc1ccc(-c2nc(C)c(C(C)=O)n2O)cc1OC 38.2%
CC(C)(C)N(Cc1ccccc1)C(=O)c1ccc(Br)o1 -10.2%
CCOC(=O)C(Cc1cc(C(C)=O)ccc1OC(C)C)C(=O)OCC -3.49%
COc1ccc(CN(CCN(C)C)c2ccccn2)cc1 -3.99%
CCCNC(C)C(=O)Nc1ccccc1C (stereo not given) -6.92%
CC(COc1ccccc1)N(CCCl)Cc1ccccc1 (stereo not given) -2.48%
CCCCC[C@H](O)/C=C/[C@@H]1[C@@H](C/C=C\CCCC(=O)O)[C@@H](O)C[C@H]1O -7.38%
CN(CCO)CC(O)Cn1cnc2c1c(=O)n(C)c(=O)n2C (stereo not given) (tested in a mixture with another compound) -14%
Cc1nc(C(=O)Nc2ccccc2Cl)cc2c1[nH]c1ccccc12 -2.1%
COc1ccc2c(c1OC)C(=O)NC(C)=C(C(=O)OC(C)(C)C)C2O (stereo not given) 2.87%
COc1ccc(CNC(=O)c2c(O)c3cccc4c3n(c2=O)CCC4)cc1 3.86%
O=C1NC2(Nc3ccccc31)C(=O)Nc1ccc(Br)cc12 (stereo not given) 9.32%
COc1ccc(CC(=O)NCC2(c3ccc(OC)c(OC)c3)CCOCC2)cc1 -6.16%
O=C(O)[C@H](Cc1ccccc1)NC(=O)N1CCC(Cc2ccccc2)CC1 -4.64%
COc1cc(COc2ccc3c(C)c(Cc4ccccc4)c(=O)oc3c2)cc(OC)c1OC 12.4%
O=C(Cc1ccccc1)NCC(=O)OCC(=O)c1ccccc1Cl -14.4%
Cc1cnc(C(=O)N2CCCC(C(=O)c3ccc(Cl)cc3C)C2)cn1 (stereo not given) 2.61%
CCOc1ccc(C(=O)Nc2ccc(N3CCN(C(C)=O)CC3)cc2)cc1[N+](=O)[O-] 3.94%
Cn1c(Oc2ccc3c(c2)OCO3)nc2c1c(=O)n(Cc1ccccc1)c(=O)n2C -4.73%
COc1ccc2c(=O)c(-c3cnn(-c4ccccc4)c3)c(C)oc2c1 11.2%
Fc1cccc(Cc2noc(CN3CCN(c4cnccn4)CC3)n2)c1 -12.8%
C[C@]12CCC(=O)C=C1CC[C@@H]1[C@@H]2[C@@H](O)C[C@@]2(C)[C@H]1CC[C@]2(O)C(=O)COC(=O)CCC(=O)O 0.93%
CC(C)(C)NC[C@H](O)COc1nsnc1N1CCOCC1 4.56%
CCc1cccc(OC2OC(CO)C(O)C(O)C2NC(C)=O)c1 (stereo not given) -11.2%
